Assay results taken from patent US6569897B1, “Alkenyldiarylmethane non-nucleoside HIV-1 reverse transcriptase inhibitors” (priority 1998, dated 2003).

Tested on: HIV-1 NL4-3, RT 4XAZT/L100I
Assay type: cell-based

With `COC(=O)CCCC=C(c1cc(Cl)c(OC)c(C(=O)OC)c1)c1cc(Cl)c(OC)c(C(=O)OC)c1` [Compound 22, Methyl 3′,3″-Dichloro-4′,4″-dimethoxy-5,5″-bis(methoxycarbonyl)-6,6-diphenylhexenoate] as the compound, how does the EC50 read?
The EC50 was 270 nM.
